Measured values from a collection of fitness landscapes (doi:10.1126/science.1257360).
Some of the results follow.

B1: PhoQ; a variant is named by its letters at X, in order, P23837 (parent)
chain: MKKLLRLFFPLSLRVRFLLATAAVVLVLSLAYGMVALIGYSVSFDKTTFRLLRGESNLFYTLAKWENNKLHVELPENIDKQSPTMTLIYDENGQLLWAQRDVPWLMKMIQPDWLKSNGFHEIEADVNDTSLLLSGDHSIQQQLQEVREDDDDAEMTHSVAVNVYPATSRMPKLTIVVVDTIPVELKSSYMVWSWFIYVLSANLLLVIPLLWVAAWWSLRPIEALAKEVRELEEHNRELLNPATTRELTSLVRNLNRLLKSERERYDKYRTTLTDLTHSLKTPLXXLQXXLRSLRSEKMSVSDAEPVMLEQISRISQQIGYYLHRASMRGGTLLSRELHPVAPLLDNLTSALNKVYQRKGVNISLDISPEISFVGEQNDFVEVMGNVLDNACKYCLEFVEISARQTDEHLYIVVEDDGPGIPLSKREVIFDRGQRVDTLRPGQGVGLAVAREITEQYEGKIVAGESMLGGARMEVIFGRQHSAPKDE

Variants of: B1
Experiment: enrichment ratio after two sorts for PhoP signalling (ratio (wild type AVST 3.29)); higher = more functional
Conditions: with PhoP (E. coli)

Variant | enrichment ratio
YCRT | ≤ 0.25
SDQR | ≤ 0.25
KTPC | ≤ 0.25
IHHL | ≤ 0.25
MNVK | ≤ 0.25
RIFR | ≤ 0.25
HWGP | ≤ 0.25
GCYI | ≤ 0.25
GNYF | ≤ 0.25
AFPD | ≤ 0.25
IDLC | ≤ 0.25
KMCI | ≤ 0.25
DDPH | ≤ 0.25
NYYQ | ≤ 0.25
MFKC | ≤ 0.25
EIVK | ≤ 0.25
WSWQ | ≤ 0.25
LWHE | ≤ 0.25
IHLS | ≤ 0.25
AWVK | ≤ 0.25
SCVN | 11.1
WSCY | ≤ 0.25
NHVA | ≤ 0.25
NKQD | ≤ 0.25
PVWH | ≤ 0.25

Variant | enrichment ratio
MRIT | ≤ 0.25
WDIY | ≤ 0.25
NAYK | ≤ 0.25
TKSH | 0.457
FVPE | ≤ 0.25
GGRQ | ≤ 0.25
KNLN | ≤ 0.25
DGDR | ≤ 0.25
FVLG | 4.02
LFSY | ≤ 0.25
ARFS | ≤ 0.25
YHYI | ≤ 0.25
ATTY | 5.36
EEAQ | ≤ 0.25
FSYT | ≤ 0.25
EMCG | ≤ 0.25
SVWV | ≤ 0.25
TYPV | ≤ 0.25
LEKE | ≤ 0.25
PKAQ | ≤ 0.25
VYMC | 0.507
DYSH | ≤ 0.25
TAYH | 4.35
VDGM | ≤ 0.25
LEII | ≤ 0.25

Variant | enrichment ratio
RDDM | ≤ 0.25
IDWC | ≤ 0.25
LWKA | ≤ 0.25
IQGI | ≤ 0.25
HYLW | ≤ 0.25
SRFI | ≤ 0.25
KMLC | ≤ 0.25
DWVF | ≤ 0.25
VSRN | ≤ 0.25
LCWN | ≤ 0.25
LIIY | ≤ 0.25
NASQ | ≤ 0.25
LEVS | 0.357
KDVP | ≤ 0.25
YIMT | 0.602
RITM | ≤ 0.25
GWLH | ≤ 0.25
ELPS | ≤ 0.25
HQYA | ≤ 0.25
ICTT | 11.9
NNHR | ≤ 0.25
TQLK | 4.42
DTQF | ≤ 0.25
LNKI | ≤ 0.25
DQVD | ≤ 0.25

Variant | enrichment ratio
KYAG | ≤ 0.25
TAQH | ≤ 0.25
KFHC | ≤ 0.25
WDSY | ≤ 0.25
MWLY | ≤ 0.25
FYHM | ≤ 0.25
CTYL | ≤ 0.25
VIVR | ≤ 0.25
FVFQ | ≤ 0.25
VTQI | ≤ 0.25
PFID | ≤ 0.25
CYSN | ≤ 0.25
SMAM | 8.06
KTFL | ≤ 0.25
VKNE | ≤ 0.25
TSAA | 8.84
DGHK | ≤ 0.25
EYVQ | ≤ 0.25
LSDG | ≤ 0.25
AAGV | ≤ 0.25
GYMD | ≤ 0.25
WFWR | ≤ 0.25
TCQI | 15.2
SVNR | 4.04
WSPR | ≤ 0.25

Variant | enrichment ratio
TGGP | ≤ 0.25
HERK | ≤ 0.25
EETA | ≤ 0.25
MYGH | ≤ 0.25
TKYV | 0.4
YQIL | ≤ 0.25
IMWA | ≤ 0.25
AVIK | 1.18
KEQA | ≤ 0.25
NRYT | ≤ 0.25
QDQP | ≤ 0.25
FFLC | ≤ 0.25
RHCF | ≤ 0.25
HPSQ | ≤ 0.25
WRRE | ≤ 0.25
GNLI | 15.8
YAAT | ≤ 0.25
VMDQ | ≤ 0.25
NNCM | ≤ 0.25
IRQY | ≤ 0.25
KFTI | ≤ 0.25
YNFD | ≤ 0.25
NWAT | ≤ 0.25
TACM | 12.4
KNFE | ≤ 0.25

Variant | enrichment ratio
QNSS | 8.09
QEDC | ≤ 0.25
TEFA | 11.3
WKGP | ≤ 0.25
SVHW | ≤ 0.25
TYLG | 6.58
PCPE | ≤ 0.25
LLAL | ≤ 0.25
ETSE | ≤ 0.25
PFAQ | ≤ 0.25
GSGM | 8.45
MKQF | ≤ 0.25
LEMK | ≤ 0.25
LNPD | ≤ 0.25
TAEI | ≤ 0.25
PWCI | ≤ 0.25
ATAD | ≤ 0.25
YKWN | ≤ 0.25
TMSE | 15.9
DLVG | 1.7
TITI | 5.37
HYYS | ≤ 0.25
SRGV | ≤ 0.25
WFRG | ≤ 0.25
IQMV | ≤ 0.25

Variant | enrichment ratio
SQNG | 9.56
YERT | ≤ 0.25
TYKQ | ≤ 0.25
LMYD | ≤ 0.25
YPQG | ≤ 0.25
QPNR | ≤ 0.25
RFHW | ≤ 0.25
VHLE | ≤ 0.25
KYTW | ≤ 0.25
RIVT | ≤ 0.25
ILVR | ≤ 0.25
GTQN | 0.887
VSVV | ≤ 0.25
KPFA | ≤ 0.25
GQLG | 4.28
VGKK | ≤ 0.25
KRDH | ≤ 0.25
HGFI | ≤ 0.25
KRVN | ≤ 0.25
YVWP | ≤ 0.25
YDGW | ≤ 0.25
MMAR | ≤ 0.25
ALND | ≤ 0.25
HFRW | ≤ 0.25
SNTN | 8.33

Variant | enrichment ratio
TRPC | ≤ 0.25
GHQG | ≤ 0.25
KASV | ≤ 0.25
RDMN | ≤ 0.25
FLPH | ≤ 0.25
QQCV | ≤ 0.25
YMYV | ≤ 0.25
MHQI | ≤ 0.25
NWYH | ≤ 0.25
TKNS | 2.26
ALLF | 2.68
HDEL | ≤ 0.25
GTIC | ≤ 0.25
MRMW | ≤ 0.25
YPHR | ≤ 0.25
VEWY | ≤ 0.25
IMLM | ≤ 0.25
KMDM | ≤ 0.25
TGMD | ≤ 0.25
GMFM | ≤ 0.25
